Measurements: the supplement of paper PMC12230231
± gives the standard deviation of the averaged measurements. Restriction of a single-cycle SIVsab GFP reporter by TRIM5α v1-loop variants in CRFK cells. Human variants: read share among cells still uninfected after two challenges over input, higher = gained restriction. Rhesus variants: share among infected cells over input, higher = lost restriction. Reporter dose not given per row. No active / inactive call per row; the paper calls a change when both replicates lie above its controls (mean + 2 SD of stop or wild-type variants, or the top frameshift score). Residues outside the varied loop are taken from Swiss-Prot. The paper reads the human single-substitution scores as noise; they and the rhesus combinations repeat poorly (rank correlation 0.3 to 0.4), indel scores repeat only for the top variants, rhesus substitutions well (0.9).

The sequences below were run on SIVsab (simian immunodeficiency virus of sabaeus monkeys), single-cycle GFP reporter, in CRFK cells (assay: enrichment among uninfected cells over input (fold); higher = stronger restriction). Conditions: library: human / rhesus combinations.
Procedure: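 Pools of CRFK cells expressing variants of the TRIM5α v1 loop were challenged with the single-cycle reporter, sorted by GFP and sequenced; mean of two replicates.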

Sequence | enrichment
MASGILVNVKEEVTCPICLELLTQPLSLDCGHSFCQACLTANHKKSMLDKGESSCPVCRISYQPENIRPNRHVANIVEKLREVKLSPEGQKVDHCARHGEKLLLFCQEDGKVICWLCERSQEHRGHHTFLTEEVAREYQVKLQAALEMLRQKQQEAEELEADIREEKASWKTQIQYDKTNVLADFEQLRDILDWEESNELQNLEKEEEDILKSLTNSETEMVQQTQSLRELISDLEHRLQGSVMELLQGVDGVIKRTENVTLKKPETFPKNQRRVFRAPDLKGMLEVFRELTDVRRYWVDVTVAPNNISCAVISEDKRQVSSPKPQIIYQARGTRYTFQTFVNFNYCTGILGSQSITSGKHYWEVDVSKKTAWILGVCAGFQPDAMCNIEKNENYQPKYGYWVIGLEEGVKCSAFQDSSFHTPSVPFIVPLSVIICPDRVGVFLDYEACTVSFFNITNHGFLIYKFSHCSFSQPVFPYLNPRKCGVPMTLCSPSS [human TRIM5α, 330-340 = QARGTRYTFQTFV] | 1 ± 0.44
MASGILVNVKEEVTCPICLELLTQPLSLDCGHSFCQACLTANHKKSMLDKGESSCPVCRISYQPENIRPNRHVANIVEKLREVKLSPEGQKVDHCARHGEKLLLFCQEDGKVICWLCERSQEHRGHHTFLTEEVAREYQVKLQAALEMLRQKQQEAEELEADIREEKASWKTQIQYDKTNVLADFEQLRDILDWEESNELQNLEKEEEDILKSLTNSETEMVQQTQSLRELISDLEHRLQGSVMELLQGVDGVIKRTENVTLKKPETFPKNQRRVFRAPDLKGMLEVFRELTDVRRYWVDVTVAPNNISCAVISEDKRQVSSPKPQIIYQAPGTRYTFPSFTNFNYCTGILGSQSITSGKHYWEVDVSKKTAWILGVCAGFQPDAMCNIEKNENYQPKYGYWVIGLEEGVKCSAFQDSSFHTPSVPFIVPLSVIICPDRVGVFLDYEACTVSFFNITNHGFLIYKFSHCSFSQPVFPYLNPRKCGVPMTLCSPSS [human TRIM5α, 330-340 = QAPGTRYTFPSFT] | 0.381 ± 0.036

Same assay, conditions: library: insertions and deletions

Sequence | enrichment
MASGILVNVKEEVTCPICLELLTQPLSLDCGHSFCQACLTANHKKSMLDKGESSCPVCRISYQPENIRPNRHVANIVEKLREVKLSPEGQKVDHCARHGEKLLLFCQEDGKVICWLCERSQEHRGHHTFLTEEVAREYQVKLQAALEMLRQKQQEAEELEADIREEKASWKTQIQYDKTNVLADFEQLRDILDWEESNELQNLEKEEEDILKSLTNSETEMVQQTQSLRELISDLEHRLQGSVMELLQGVDGVIKRTENVTLKKPETFPKNQRRVFRAPDLKGMLEVFRELTDVRRYWVDVTVAPNNISCAVISEDKRQVSSPKPQIPQIIYGARGTRYQTFVNFNYCTGILGSQSITSGKHYWEVDVSKKTAWILGVCAGFQPDAMCNIEKNENYQPKYGYWVIGLEEGVKCSAFQDSSFHTPSVPFIVPLSVIICPDRVGVFLDYEACTVSFFNITNHGFLIYKFSHCSFSQPVFPYLNPRKCGVPMTLCSPSS [human TRIM5α, 3-codon duplication at 325] | 0.156 ± 0.06
MASGILVNVKEEVTCPICLELLTQPLSLDCGHSFCQACLTANHKKSMLDKGESSCPVCRISYQPENIRPNRHVANIVEKLREVKLSPEGQKVDHCARHGEKLLLFCQEDGKVICWLCERSQEHRGHHTFLTEEVAREYQVKLQAALEMLRQKQQEAEELEADIREEKASWKTQIQYDKTNVLADFEQLRDILDWEESNELQNLEKEEEDILKSLTNSETEMVQQTQSLRELISDLEHRLQGSVMELLQGVDGVIKRTENVTLKKPETFPKNQRRVFRAPDLKGMLEVFRELTDVRRYWVDVTVAPNNISCAVISEDKRQVSSPKPQIIYGARGTFVNFNYCTGILGSQSITSGKHYWEVDVSKKTAWILGVCAGFQPDAMCNIEKNENYQPKYGYWVIGLEEGVKCSAFQDSSFHTPSVPFIVPLSVIICPDRVGVFLDYEACTVSFFNITNHGFLIYKFSHCSFSQPVFPYLNPRKCGVPMTLCSPSS [human TRIM5α, 4-codon deletion at 334] | 0.56 ± 0.21
MASGILVNVKEEVTCPICLELLTQPLSLDCGHSFCQACLTANHKKSMLDKGESSCPVCRISYQPENIRPNRHVANIVEKLREVKLSPEGQKVDHCARHGEKLLLFCQEDGKVICWLCERSQEHRGHHTFLTEEVAREYQVKLQAALEMLRQKQQEAEELEADIREEKASWKTQIQYDKTNVLADFEQLRDILDWEESNELQNLEKEEEDILKSLTNSETEMVQQTQSLRELISDLEHRLQGSVMELLQGVDGVIKRTENVTLKKPETFPKNQRRVFRAPDLKGMLEVFRELTDVRRYWVDVTVAPNNISCAVISEDKRQVSSPKPQIIYGARGTRYQTFVNNYCTGILGSQSITSGKHYWEVDVSKKTAWILGVCAGFQPDAMCNIEKNENYQPKYGYWVIGLEEGVKCSAFQDSSFHTPSVPFIVPLSVIICPDRVGVFLDYEACTVSFFNITNHGFLIYKFSHCSFSQPVFPYLNPRKCGVPMTLCSPSS [human TRIM5α, 1-codon deletion at 342] | 0.813 ± 0.37
MASGILVNVKEEVTCPICLELLTQPLSLDCGHSFCQACLTANHKKSMLDKGESSCPVCRISYQPENIRPNRHVANIVEKLREVKLSPEGQKVDHCARHGEKLLLFCQEDGKVICWLCERSQEHRGHHTFLTEEVAREYQVKLQAALEMLRQKQQEAEELEADIREEKASWKTQIQYDKTNVLADFEQLRDILDWEESNELQNLEKEEEDILKSLTNSETEMVQQTQSLRELISDLEHRLQGSVMELLQGVDGVIKRTENVTLKKPETFPKNQRRVFRAPDLKGMLEVFRELTDVRRYWVDVTVAPNNISCAVISEDKRQVSSPKPQIIYGARGTRYQTFVNYCTGILGSQSITSGKHYWEVDVSKKTAWILGVCAGFQPDAMCNIEKNENYQPKYGYWVIGLEEGVKCSAFQDSSFHTPSVPFIVPLSVIICPDRVGVFLDYEACTVSFFNITNHGFLIYKFSHCSFSQPVFPYLNPRKCGVPMTLCSPSS [human TRIM5α, 2-codon deletion at 342] | 0.313 ± 0.12
MASGILVNVKEEVTCPICLELLTQPLSLDCGHSFCQACLTANHKKSMLDKGESSCPVCRISYQPENIRPNRHVANIVEKLREVKLSPEGQKVDHCARHGEKLLLFCQEDGKVICWLCERSQEHRGHHTFLTEEVAREYQVKLQAALEMLRQKQQEAEELEADIREEKASWKTQIQYDKTNVLADFEQLRDILDWEESNELQNLEKEEEDILKSLTNSETEMVQQTQSLRELISDLEHRLQGSVMELLQGVDGVIKRTENVTLKKPETFPKNQRRVFRAPDLKGMLEVFRELTDVRRYWVDVTVAPNNISCAVISEDKRQVSSPKPQIIYGARGTRYQTARGTRYQTFVNFNYCTGILGSQSITSGKHYWEVDVSKKTAWILGVCAGFQPDAMCNIEKNENYQPKYGYWVIGLEEGVKCSAFQDSSFHTPSVPFIVPLSVIICPDRVGVFLDYEACTVSFFNITNHGFLIYKFSHCSFSQPVFPYLNPRKCGVPMTLCSPSS [human TRIM5α, 8-codon duplication at 331] | 0.436 ± 0.064
MASGILVNVKEEVTCPICLELLTQPLSLDCGHSFCQACLTANHKKSMLDKGESSCPVCRISYQPENIRPNRHVANIVEKLREVKLSPEGQKVDHCARHGEKLLLFCQEDGKVICWLCERSQEHRGHHTFLTEEVAREYQVKLQAALEMLRQKQQEAEELEADIREEKASWKTQIQYDKTNVLADFEQLRDILDWEESNELQNLEKEEEDILKSLTNSETEMVQQTQSLRELISDLEHRLQGSVMELLQGVDGVIKRTENVTLKKPETFPKNQRRVFRAPDLKGMLEVFRELTDVRRYWVDVTVAPNNISCAVISEDKRQVSSPKPQIIYGARGTNFNYCTGILGSQSITSGKHYWEVDVSKKTAWILGVCAGFQPDAMCNIEKNENYQPKYGYWVIGLEEGVKCSAFQDSSFHTPSVPFIVPLSVIICPDRVGVFLDYEACTVSFFNITNHGFLIYKFSHCSFSQPVFPYLNPRKCGVPMTLCSPSS [human TRIM5α, 6-codon deletion at 335] | 0.947 ± 0.96
